Measurements: PubChem BioAssay AID1745847 (National Center for Advancing Translational Sciences (NCATS), 2022)
In all, about 2,100 compounds went through this assay and about 670 (32%) were called active. Inconclusive results, whose numbers are uncertain, are shown with a selection of clear calls. Calls come from the whole dose curve; as a rule, active = well fitted inhibition curve with a large enough effect; inconclusive = small, poorly fitted or top-dose-only effect; inactive = no such curve, though single readings can be large or run the other way. Potencies of inconclusive entries are doubtful fits and often do not repeat.
% is set by controls: 0 for no effect and ±100 for the full control effect; potency is the fitted concentration of half-maximal effect; tags give direction and shape of the fitted curve.

Test: CMV-Luciferase Counterscreen for Inhibitors of ATXN expression; note: nearly all actives have a fitted effect of over 55% in size
Details: HEK-293 CMV-luciferase reporter, luminescence, 24 h; series mostly up to 57.5 µM; activity change, negative = inhibition: at the top concentration
With `Cc1ccc(C(=O)N/N=C/c2nc3ccccc3n2C)cc1` the “activity change, negative = inhibition” value was inactive: -21.7%. For `O=C(N/N=C/c1c(O)n(Cc2ccccc2)c(=O)c2ccccc12)c1cccnc1`, the Potency was active: 12.6 µM. In the case of `C=CCN1C=CC(=O)[C@@H](OC(=O)Nc2ccc(Br)cc2)[C@H]1c1ccccc1Br`, the Potency is reported as inconclusive: 7.08 µM [inhibitor, single point]. In the case of `Cc1ccc(S(=O)(=O)/N=C(\Sc2ccccc2)c2ccccc2)cc1`, the Potency is reported as inconclusive: 39.8 µM [inhibitor, single point]. With `FC(F)(F)c1ccc(N2CCN(c3cc(-c4ccccc4)nc4ncnn34)CC2)nc1` the Potency was active: 1.58 µM. With `CCOc1cc(/C=C(/C#N)c2nc3ccccc3[nH]2)ccc1Oc1ccc([N+](=O)[O-])cn1` the Potency was inconclusive: 8.91 µM [inhibitor, partial curve]. In the case of `CCN(CC)CCn1c2ccccc2c2cnc(N)c(C#N)c21`, the activity change, negative = inhibition is reported as inactive: -22.5% [at 11.4 µM]. In the case of `COc1ccc(-c2sc3ccc(OC)cc3c2-c2ccc(O)cc2)cc1`, the Potency is reported as inconclusive: 3.16 µM [inhibitor, single point]. With `Cc1ccc(Cl)cc1-c1ccc(C=Nc2ccc(N3CCOCC3)cc2)o1` the Potency was inconclusive: 17.8 µM [inhibitor, partial curve]. In the case of `CC(C)CC(=O)NC(c1cccs1)c1ccc2cccnc2c1O` (stereo not drawn), the Potency is reported as inconclusive: 0.708 µM [inhibitor, full curve, poor fit]. With `Oc1[nH]c2ccc(Br)cc2c1N=NC(=S)N1CCOCC1` the activity change, negative = inhibition was inactive: 43.7% [at 11.4 µM]. For `COc1ccc(C2CC(c3cccc(Br)c3)=NN2c2ccc(S(N)(=O)=O)cc2)cc1` (stereo not drawn), the Potency was inconclusive: 39.8 µM [inhibitor, single point]. For `COc1cc(/C=C(/C#N)C(=O)NCCc2c[nH]c3ccccc23)ccc1OCc1ccccc1F`, the Potency was inconclusive: 31.6 µM [inhibitor, partial curve, poor fit]. With `COc1cccc(-c2sc3ccccc3c2-c2ccc(OCCN3CCCC3)cc2)c1` the Potency was inconclusive: 3.55 µM [inhibitor, single point]. For `O=C(Nc1nc(-c2ccccn2)cs1)c1ccco1`, the Potency was inconclusive: 3.55 µM [inhibitor, full curve]. With `O=C(NNC(=O)c1cnccn1)c1ccc(Cl)c(Cl)c1` the Potency was inconclusive: 4.47 µM [inhibitor, partial curve]. In the case of `O=C(/C=C/c1ccccc1)c1cc(Br)ccc(=O)c1O`, the “activity change, negative = inhibition” value is reported as inactive: -15.1%. For `CC(=O)Nc1cccc(-c2ccnc3c2CC(C)(C(=O)Nc2cccc(Oc4ccccc4)c2)O3)c1` (stereo not drawn), the Potency was inconclusive: 28.2 µM [inhibitor, partial curve, poor fit]. With `COc1cccc(CNCCc2c[nH]c3ccccc23)c1OCc1ccc(F)cc1` the Potency was inconclusive: 3.55 µM [inhibitor, single point]. For `CCN(CC)CCNC(=O)CCc1c(C)nc2c(c(C)nn2-c2ccc(C)cc2)c1C`, the Potency was inconclusive: 2.82 µM [inhibitor, partial curve, poor fit]. For `C=CCOC(=O)C1=C[C@@H](c2ccc3c(c2)OCO3)C[C@@H](OCCCCO)O1`, the “activity change, negative = inhibition” value was inactive: 5.8%. In the case of `CN(C)c1cc[n+](CC(=O)c2ccc(-c3ccccc3)cc2)cc1`, the Potency is reported as inconclusive: 1.12 µM [inhibitor, partial curve, poor fit]. With `CS/C(=C\[N+](=O)[O-])Nc1ccc(OC(F)(F)F)cc1` the Potency was inconclusive: 3.55 µM [inhibitor, full curve]. In the case of `C/C(=N\NC(=O)c1cccc2ccccc12)c1ccccn1`, the Potency is reported as inconclusive: 1.26 µM [inhibitor, full curve, poor fit]. For `O=C(Nc1nc(-c2ccccn2)cs1)c1ccccc1-n1cnnn1`, the Potency was active: 3.55 µM. In the case of `Cc1ccc2c(CC(=O)NNC(=O)c3ccccc3O)coc2c1`, the Potency is reported as inconclusive: 3.16 µM [inhibitor, single point]. For `CCOCCn1ccc2c(OCC(=O)Nc3ccc(OC)c(OC)c3)cccc2c1=O`, the Potency was inconclusive: 3.16 µM [inhibitor, partial curve, poor fit]. In the case of `COc1ccc(CCC(=O)Nc2c(-c3ccc(N(C)C)cc3)[nH][nH]c2=O)cc1`, the Potency is reported as inconclusive: 39.8 µM [inhibitor, single point]. In the case of `CCCc1nc2c(c(=O)c3ccccc3n2C)c(=O)n1C1CCCCCC1`, the Potency is reported as inconclusive: 14.1 µM [inhibitor, partial curve]. In the case of `O=C(CCc1ccccc1)NNC(=O)c1cc(Cl)ccc1O`, the Potency is reported as inconclusive: 3.55 µM [inhibitor, partial curve, poor fit]. With `O=C(CSc1nnnn1-c1ccccc1)Nc1nsc(-c2ccccc2)n1` the “activity change, negative = inhibition” value was inactive: -0.699%. With `CCc1nc2c(OCc3ccc(Cl)cc3Cl)cccn2c1N(C=O)Cc1ccc(OC)cc1` the Potency was active: 3.16 µM. For `COc1ccc(C(=O)/C=C/c2cccc(OCc3ccccc3)c2)cc1CSCC(=O)O`, the activity change, negative = inhibition was inactive: -3.73% [at 11.4 µM]. In the case of `Cc1ccc(-c2nc3cc(Br)cnc3nc2-c2ccc(C)cc2)cc1`, the activity change, negative = inhibition is reported as inactive: -25.9% [at 11.4 µM]. With `O=S(=O)(c1ccc2nc(COc3ccc(Cl)cc3Cl)[nH]c2c1)N1CCOCC1` the Potency was inconclusive: 6.31 µM [inhibitor, single point]. In the case of `CC(C)N(C(=O)COC(=O)c1ccccc1C(=O)c1ccc(Cl)c([N+](=O)[O-])c1)C(C)C`, the activity change, negative = inhibition is reported as inactive: -18% [at 11.4 µM]. In the case of `O=C(c1ccco1)N1CCN(c2ncnc3scc(-c4cccs4)c23)CC1`, the Potency is reported as inconclusive: 3.98 µM [inhibitor, single point]. With `CC1(C)COCN1S(=O)(=O)c1ccc(C(=O)Nc2nnc(-c3ccc(Cl)s3)o2)cc1` the Potency was inconclusive: 0.447 µM [inhibitor, full curve]. For `CC1C(=O)C(C)C(c2cc(Br)ccc2O)NC1c1cc(Br)ccc1O` (stereo not drawn), the Potency was inconclusive: 28.2 µM [inhibitor, single point]. For `Cc1ccc2nc(SCc3ccc([N+](=O)[O-])cc3)[nH]c2c1`, the Potency was inconclusive: 6.31 µM [inhibitor, single point]. In the case of `C=CCc1ccccc1OCC(O)CN1CCN(CCN2C(=O)c3cccc4cccc(c34)C2=O)CC1` (stereo not drawn), the Potency is reported as inconclusive: 22.4 µM [inhibitor, single point]. With `O=C(Nc1cccc(-c2cccc(Cl)c2)c1)C1CCN(Cc2ccccn2)CC1` the Potency was inconclusive: 11.2 µM [inhibitor, partial curve]. With `CNC(=O)c1sc(N2N=C3/C(=C/c4ccccc4)CCCC3C2c2ccccc2)nc1C` (stereo not drawn) the Potency was active: 7.94 µM. For `COc1cccc(/C=N/NC(=O)CSCC(=O)Nc2ccccc2)c1O`, the Potency was active: 1.26 µM. With `CCCC[C@@H](CNC)NC[C@H](NCCCCC1CCCCC1)C(C)C` the Potency was active: 35.5 µM. With `Cn1c(SCc2ccc(C(C)(C)C)cc2)nnc1C1COc2ccccc2O1` (stereo not drawn) the Potency was inconclusive: 3.55 µM [inhibitor, single point]. For `CC1Sc2ccc(S(=O)(=O)CCC(=O)N3CCN(c4cccc(Cl)c4)CC3)cc2NC1=O` (stereo not drawn), the Potency was inconclusive: 14.1 µM [inhibitor, partial curve, poor fit]. With `Cc1cc(N/N=C\c2ccc(Br)cc2)nc(-n2nc(C)cc2C)n1` the “activity change, negative = inhibition” value was inactive: 1.75%. For `Cc1ccc(C)c(/C=C/C(=O)c2ccccc(=O)c2O)c1`, the “activity change, negative = inhibition” value was inactive: -25.3%. With `Cc1cc(/C=N/n2cnnc2)c(C)n1-c1ccc(OCc2ccc(Cl)cc2Cl)cc1` the Potency was active: 12.6 µM. With `CCC(=O)OC1(C(C)=O)CCC2C3CCC4=CC(=O)CCC4(C)C3CCC21C` (stereo not drawn) the “activity change, negative = inhibition” value was inactive: -21.7%. In the case of `O=C(Nc1cccc(Cl)c1)c1ccc2c(c1)SC1=NS(=O)(=O)CCN12`, the Potency is reported as inconclusive: 3.16 µM [inhibitor, single point]. For `COc1ccc(-n2cc(CN(C)C(C)c3ccncn3)c(-c3cccc(F)c3)n2)cc1` (stereo not drawn), the Potency was inconclusive: 35.5 µM [inhibitor, single point]. With `CCOC(=O)c1c(NC(=O)COC(=O)Cn2cnc3ccccc32)sc(C)c1C` the “activity change, negative = inhibition” value was inactive: 20.6%. With `O=C(Nc1nc(-c2ccccn2)cs1)c1ccc(F)c(S(=O)(=O)N2CCOCC2)c1` the Potency was active: 1.78 µM. In the case of `O=C(Nc1ccc(N2CCOCC2)c(Cl)c1)c1c(F)c(F)c(F)c(F)c1F`, the activity change, negative = inhibition is reported as inactive: 29.5% [at 11.4 µM]. With `COc1cc(-c2cc3nc(NCc4cccc(Cl)c4)ccn3n2)cc(OC)c1OC` the Potency was active: 3.55 µM. With `COc1ccc(O)c(/C=N/NC(=O)CSc2nnc(C)n2-c2ccccc2)c1` the Potency was inconclusive: 2.51 µM [inhibitor, partial curve, poor fit]. For `Cc1c(N/N=C(\C#N)C(=O)c2ccc(Cl)cc2)c(=O)n(-c2ccccc2)n1C`, the Potency was inconclusive: 1.26 µM [inhibitor, partial curve, poor fit]. For `O=C(N/N=C\c1c(O)ccc2ccccc12)c1ccc(Cn2cccn2)o1`, the Potency was active: 0.891 µM. For `CC(=O)Nc1ccc(CNc2nc(NC(C)C)nc3cc(-c4ccccc4)sc23)cc1`, the Potency was inconclusive: 39.8 µM [inhibitor, single point]. For `COc1cc2c3nnc(-c4ccc(F)cc4)c-3cn(Cc3ccccc3F)c2cc1OC`, the activity change, negative = inhibition was inactive: 65% [at 11.4 µM]. With `Cc1[nH]c(=O)c(C(=O)/C=C/c2ccccc2)c2c1CCCC2` the Potency was active: 8.91 µM. In the case of `COc1cc(/C=C2\SC(=O)N(CC(=O)Nc3ccccc3F)C2=O)cc(Cl)c1O`, the Potency is reported as inconclusive: 1 µM [inhibitor, full curve]. In the case of `Cc1csc(NC(=O)COCC(=O)O)c1-c1nc2ccccc2s1`, the “activity change, negative = inhibition” value is reported as inactive: -1.27%. In the case of `CCCCC(=O)NC(c1ccccc1)c1ccc2cccnc2c1O` (stereo not drawn), the Potency is reported as active: 3.98 µM. With `COC(/C(=N/O)c1ccc(Cl)cc1)c1ccccc1` (stereo not drawn) the “activity change, negative = inhibition” value was inactive: -21.2%. In the case of `CN(C)CCNc1cccc2sc3ccc(O)cc3c(=O)c12`, the Potency is reported as active: 14.1 µM.
